In all, about 81,000 sequences were measured (“one-hybrid fitness for binding NBS DNA”: median about -0.1, highest 2% from about 0.36 on). The list shows a part of the results.
B1: Caulobacter ParB omega fusion; a variant is named by its letters at X, in order, B8GW30 (parent)
chain: MESVVVGEPGMSEGRRGLGRGLSALLGEVDAAPAQAPGEQLGGSREAPIEILQRNPDQPRRTFREEDLEDLSNSIREKGVLQPILVRPSPDTAGEYQIVAGERAWRAAQRAGLKTVPIMVRELDDLAVLEIGIIENVQRADLNVLEEALSYKVLMEKFERTQENIAQTIGKSXSHVANXMRLLXLPDEVQSYLVSGELTAXHARAIAAAADPVALAKQIIEGGLSVRETEALARKAPNLSAGKSKGGRPPRVKDTDTQALESDLSSVLGLDVSIDHRGSTGTLTITYATLEQLDDLCNRLTRGI

Variants of: B1
Assay: one-hybrid fitness for binding NBS DNA (the Noc-binding site; scaled: cognate 1, non-cognate 0); higher = stronger binding
Conditions: with NBS DNA site
Procedure, shortened: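 Caulobacter ParB libraries with four specificity codons randomised were screened by bacterial one-hybrid selection in the E. coli USO strain, using a HIS3 reporter whose site lies 19 bp from the promoter. Selection ran for 48 hours at 37°C on M9 lacking histidine, with 0.1 mM IPTG and 5 mM 3-AT. Plasmids were Illumina-sequenced before and after selection, three replicate libraries were pooled, and variants with under 10 reads were dropped. Fitness is the log change in each variant's read ratio to wild type, rescaled against the cognate and non-cognate sites.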

Row | Variant | one-hybrid fitness for binding NBS DNA
1 | KVRT | ≤ 0.2
2 | VWVT | ≤ 0.2
3 | SPAW | ≤ 0.2
4 | DDMS | ≤ 0.2
5 | PPAR | ≤ 0.2
6 | SQAS | ≤ 0.2
7 | CHPN | ≤ 0.2
8 | FTVS | ≤ 0.2
9 | DSWS | ≤ 0.2
10 | ATMS | ≤ 0.2
11 | TRHM | ≤ 0.2
12 | HIDA | ≤ 0.2
13 | DHTE | ≤ 0.2
14 | ERPR | ≤ 0.2
15 | GQDK | ≤ 0.2
16 | APPV | ≤ 0.2
17 | TTVD | ≤ 0.2
18 | WSCC | ≤ 0.2
19 | YYPI | ≤ 0.2
20 | LVTC | ≤ 0.2
21 | ALTH | ≤ 0.2
22 | VTLS | ≤ 0.2
23 | ILAC | ≤ 0.2
24 | ISYQ | ≤ 0.2

Row | Variant | one-hybrid fitness for binding NBS DNA
25 | QGYL | ≤ 0.2
26 | QDPF | ≤ 0.2
27 | QTNM | 0.34
28 | LKST | ≤ 0.2
29 | CIKT | ≤ 0.2
30 | NRTL | ≤ 0.2
31 | LDLP | ≤ 0.2
32 | PYAC | ≤ 0.2
33 | MSQP | ≤ 0.2
34 | EDMV | ≤ 0.2
35 | GPIS | ≤ 0.2
36 | WVSF | ≤ 0.2
37 | NIRY | ≤ 0.2
38 | QPDW | ≤ 0.2
39 | DHTW | ≤ 0.2
40 | NLLG | ≤ 0.2
41 | RHKC | 0.265
42 | GTLC | ≤ 0.2
43 | IGRR | ≤ 0.2
44 | ASHP | ≤ 0.2
45 | ATLF | ≤ 0.2
46 | VDDR | ≤ 0.2
47 | ASDW | ≤ 0.2
48 | GRLP | ≤ 0.2

Row | Variant | one-hybrid fitness for binding NBS DNA
49 | GHSR | ≤ 0.2
50 | RKMK | ≤ 0.2
51 | CCKG | ≤ 0.2
52 | QAQS | 0.328
53 | MARA | ≤ 0.2
54 | MNTV | ≤ 0.2
55 | YWPV | ≤ 0.2
56 | RQHC | ≤ 0.2
57 | SYHV | ≤ 0.2
58 | NQPT | ≤ 0.2
59 | HDIG | ≤ 0.2
60 | VEYF | ≤ 0.2
61 | SRTW | ≤ 0.2
62 | TRCR | 0.335
63 | QDMS | ≤ 0.2
64 | QDGS | ≤ 0.2
65 | LPET | ≤ 0.2
66 | PYYM | ≤ 0.2
67 | RLVL | ≤ 0.2
68 | KETC | ≤ 0.2
69 | DPKI | ≤ 0.2
70 | KYAT | ≤ 0.2
71 | AYNR | ≤ 0.2
72 | PKLK | ≤ 0.2

Row | Variant | one-hybrid fitness for binding NBS DNA
73 | ESNY | ≤ 0.2
74 | PTTM | ≤ 0.2
75 | NGDM | ≤ 0.2
76 | LSSL | ≤ 0.2
77 | ASVN | ≤ 0.2
78 | LCKR | 0.207
79 | MRKI | ≤ 0.2
80 | TCET | ≤ 0.2
81 | DFVR | ≤ 0.2
82 | HPDN | ≤ 0.2
83 | TQAG | ≤ 0.2
84 | NLRG | ≤ 0.2
85 | WIYW | ≤ 0.2
86 | DRAY | ≤ 0.2
87 | GLTP | ≤ 0.2
88 | GKRR | ≤ 0.2
89 | PIKS | ≤ 0.2
90 | RAAG | ≤ 0.2
91 | PNCV | ≤ 0.2
92 | SRYH | ≤ 0.2
93 | TQVF | ≤ 0.2
94 | KNSR | ≤ 0.2
95 | HVIA | ≤ 0.2
96 | TNKN | ≤ 0.2

Row | Variant | one-hybrid fitness for binding NBS DNA
97 | LPVG | ≤ 0.2
98 | DGVF | ≤ 0.2
99 | PHQG | ≤ 0.2
100 | SHTA | ≤ 0.2
101 | EHRA | ≤ 0.2
102 | TAFS | ≤ 0.2
103 | VAKR | 0.221
104 | DCRT | 0.246
105 | RPAW | ≤ 0.2
106 | LTPQ | ≤ 0.2
107 | KNRK | ≤ 0.2
108 | NAFS | ≤ 0.2
109 | IFCR | ≤ 0.2
110 | LDNC | ≤ 0.2
111 | DDPS | ≤ 0.2
112 | QCVK | ≤ 0.2
113 | LHIR | ≤ 0.2
114 | PCRW | ≤ 0.2
115 | LRSH | ≤ 0.2
116 | GPFS | ≤ 0.2
117 | ATTV | ≤ 0.2
118 | LCGA | ≤ 0.2
119 | YYKK | ≤ 0.2
120 | WASM | ≤ 0.2

Row | Variant | one-hybrid fitness for binding NBS DNA
121 | FMAL | ≤ 0.2
122 | MHTA | ≤ 0.2
123 | TQIK | ≤ 0.2
124 | ANKG | ≤ 0.2
125 | GHAA | ≤ 0.2
126 | WVAG | ≤ 0.2
127 | RCSR | 0.527
128 | SMRS | ≤ 0.2
129 | RAVG | ≤ 0.2
130 | CNGG | ≤ 0.2
131 | QKKM | 0.409
132 | VRDS | ≤ 0.2
133 | ILYD | ≤ 0.2
134 | DSGS | ≤ 0.2
135 | GMGY | ≤ 0.2
136 | ELAS | ≤ 0.2
137 | PIPS | ≤ 0.2
138 | GACF | ≤ 0.2
139 | GVLR | ≤ 0.2
140 | QKKQ | 0.384
141 | KFTR | ≤ 0.2
142 | NHKL | ≤ 0.2
143 | QSCL | ≤ 0.2
144 | YKQV | ≤ 0.2

Row | Variant | one-hybrid fitness for binding NBS DNA
145 | VVPI | ≤ 0.2
146 | AKIL | ≤ 0.2
147 | PYNM | ≤ 0.2
148 | YACK | ≤ 0.2
149 | GGGS | ≤ 0.2
150 | WSPR | ≤ 0.2
151 | EHHV | ≤ 0.2
152 | ISCG | ≤ 0.2
153 | GQDR | ≤ 0.2
154 | YLRR | ≤ 0.2
155 | TVMC | ≤ 0.2
156 | QCSW | ≤ 0.2
157 | NGLG | ≤ 0.2
158 | EYPW | ≤ 0.2
159 | QLHM | ≤ 0.2
160 | RWTG | ≤ 0.2
161 | RRED | ≤ 0.2
162 | TTTG | ≤ 0.2
163 | VSMG | ≤ 0.2
164 | AEDS | ≤ 0.2
165 | YFGT | ≤ 0.2
166 | CQRT | ≤ 0.2
167 | LISF | ≤ 0.2
168 | AGMG | ≤ 0.2

Row | Variant | one-hybrid fitness for binding NBS DNA
169 | RYTG | ≤ 0.2
170 | IYLA | ≤ 0.2
171 | HACG | ≤ 0.2
172 | DWYS | ≤ 0.2
173 | HIAK | ≤ 0.2
174 | QHPK | ≤ 0.2
175 | PKWR | ≤ 0.2
176 | HKYV | ≤ 0.2
177 | YLGG | ≤ 0.2
178 | SQNT | ≤ 0.2
179 | CLVS | ≤ 0.2
180 | YPYP | ≤ 0.2
181 | QYPR | 0.27
182 | ANQS | ≤ 0.2
183 | AYDY | ≤ 0.2
184 | DPSA | ≤ 0.2
185 | QKRC | 0.425
186 | KCRA | ≤ 0.2
187 | IMVR | ≤ 0.2
188 | TCNA | ≤ 0.2
189 | ESLG | ≤ 0.2
190 | THPV | ≤ 0.2
191 | HSLM | ≤ 0.2
192 | RHRL | ≤ 0.2

Row | Variant | one-hybrid fitness for binding NBS DNA
193 | SFYS | ≤ 0.2
194 | HYDY | ≤ 0.2
195 | GKSG | ≤ 0.2
196 | WYVT | ≤ 0.2
197 | KYFG | ≤ 0.2
198 | HCPV | ≤ 0.2
199 | DWIC | ≤ 0.2
200 | AWIR | ≤ 0.2
201 | EMET | ≤ 0.2
202 | YVEG | ≤ 0.2
203 | MTKP | ≤ 0.2
204 | LTRT | ≤ 0.2
205 | SVKW | ≤ 0.2
206 | ASKD | ≤ 0.2
207 | RTMS | 0.452
208 | LYHH | ≤ 0.2
209 | VSHG | ≤ 0.2
210 | DNLR | ≤ 0.2
211 | YYWY | ≤ 0.2
212 | ESKI | ≤ 0.2
213 | SAHT | ≤ 0.2
214 | VWVC | ≤ 0.2
215 | MPKT | ≤ 0.2
216 | TECL | ≤ 0.2

Row | Variant | one-hybrid fitness for binding NBS DNA
217 | FQMG | ≤ 0.2
218 | WIKC | ≤ 0.2
219 | RGLF | ≤ 0.2
220 | SKPA | ≤ 0.2
221 | CCPY | ≤ 0.2
222 | HVQQ | ≤ 0.2
223 | SLNC | ≤ 0.2
224 | GGIG | ≤ 0.2
225 | RQRV | 0.203
226 | NTLS | ≤ 0.2
227 | QACG | ≤ 0.2
228 | NNNF | ≤ 0.2
229 | PWTR | ≤ 0.2
230 | TISR | ≤ 0.2
231 | DIFG | ≤ 0.2
232 | AHQP | ≤ 0.2
233 | RYMN | ≤ 0.2
234 | RVCV | ≤ 0.2
235 | LWQY | ≤ 0.2
236 | RPAP | ≤ 0.2
237 | ADND | ≤ 0.2
238 | LSKV | ≤ 0.2
239 | GPPH | ≤ 0.2
240 | LQHI | ≤ 0.2

Row | Variant | one-hybrid fitness for binding NBS DNA
241 | DGST | ≤ 0.2
242 | KGQR | ≤ 0.2
243 | PDCA | ≤ 0.2
244 | QLID | ≤ 0.2
245 | YPYC | ≤ 0.2
246 | SAEN | ≤ 0.2
247 | VVYD | ≤ 0.2
248 | YAGY | ≤ 0.2
249 | HDRG | ≤ 0.2
250 | QAAY | ≤ 0.2
251 | THEG | ≤ 0.2
252 | PRES | ≤ 0.2
253 | PPHS | ≤ 0.2
254 | FPVY | ≤ 0.2
255 | VASG | ≤ 0.2
256 | RGPP | ≤ 0.2
257 | TIAG | ≤ 0.2
258 | RMLN | ≤ 0.2
259 | VTQV | ≤ 0.2
260 | KRRN | 0.217
261 | YYDR | ≤ 0.2
262 | AGCC | ≤ 0.2
263 | CVPM | ≤ 0.2
264 | PFSI | ≤ 0.2

Row | Variant | one-hybrid fitness for binding NBS DNA
265 | FDVC | ≤ 0.2
266 | AGWS | ≤ 0.2
267 | RMYI | ≤ 0.2
268 | KQSA | ≤ 0.2
269 | PSRK | ≤ 0.2
270 | PRLK | ≤ 0.2
271 | IGAV | ≤ 0.2
272 | VEYC | ≤ 0.2
273 | MSSM | ≤ 0.2
274 | WPPA | ≤ 0.2
275 | GTHF | ≤ 0.2
276 | PRGA | ≤ 0.2
277 | QPVT | 0.269
278 | STMC | ≤ 0.2
279 | CWGR | ≤ 0.2
280 | TRLY | ≤ 0.2
281 | KVVG | ≤ 0.2
282 | HNPC | ≤ 0.2
283 | VMDS | ≤ 0.2
284 | FDSA | ≤ 0.2
285 | NENR | ≤ 0.2
286 | SMTV | ≤ 0.2
287 | SLAP | ≤ 0.2
288 | YKHA | ≤ 0.2

Row | Variant | one-hybrid fitness for binding NBS DNA
289 | SYRR | 0.337
290 | HLDS | ≤ 0.2
291 | TIIM | ≤ 0.2
292 | RFHP | ≤ 0.2
293 | KADT | ≤ 0.2
294 | ASNS | ≤ 0.2
295 | RAAN | ≤ 0.2
296 | TQDF | ≤ 0.2
297 | EGMP | ≤ 0.2
298 | ITVV | ≤ 0.2
299 | GIFL | ≤ 0.2
300 | VTNC | ≤ 0.2
301 | CHPF | ≤ 0.2
302 | PQLD | ≤ 0.2
303 | RHIF | ≤ 0.2
304 | PLVY | ≤ 0.2
305 | VKNR | ≤ 0.2
306 | YTPG | ≤ 0.2

— a collection of fitness landscapes (doi:10.1016/j.celrep.2020.107928)
